Reference: US20230113563A1 (SYSTIMMUNE, published 2023)

B1: SI-49E1 (other)
heavy: FLNSLFNQEVQIPLTESYCGPCPKNWICYKNNCYQFFDESKNWYESQASCMSQNASLLKVYSKEDQDLLKLVKSYHWMGLVHIPTNGSWQWEDGSILSPNLLTIIEMQKGDCALYASSFKGYIENCSTPNTYICMQRTVGGGGSGGGGSGGGGSGGGGSFLNSLFNQEVQIPLTESYCGPCPKNWICYKNNCYQFFDESKNWYESQASCMSQNASLLKVYSKEDQDLLKLVKSYHWMGLVHIPTNGSWQWEDGSILSPNLLTIIEMQKGDCALYASSFKGYIENCSTPNTYICMQRTVVDGGGGSGGGGSEVQLVESGGGLVQPGGSLRLSCAASGFTISTNAMSWVRQAPGKGLEWIGVITGRDITYYASWAKGRFTISRDNSKNTLYLQMNSLRAEDTAVYYCARDGGSSAITSNNIWGQGTLVTVSSASTKGPSVFPLAPSSKSTSGGTAALGCLVKDYFPEPVTVSWNSGALTSGVHTFPAVLQSSGLYSLSSVVTVPSSSLGTQTYICNVNHKPSNTKVDKRV[human IgG1 Fc with changes cut from this listing]GGGGSGGGGSEVQLLESGGGLVQPGGSLRLSCAASGFSFSSGYDMCWVRQAPGKGLEWIACIAAGSAGITYDANWAKGRFTISRDNSKNTLYLQMNSLRAEDTAVYYCARSAFSFDYAMDLWGQGTLVTVSSGGGGSGGGGSGGGGSGGGGSDIQMTQSPSTLSASVGDRVTITCQASQSISSHLNWYQQKPGKAPKLLIYKASTLASGVPSRFSGSGSGTEFTLTISSLQPDDFATYYCQQGYSWGNVDNVFGGGTKVEIKGGGGSGGGGSGRSLVESGGGLVQPGGSLRLSCTASGFTISSYHMQWVRQAPGKGLEYIGTISSGGNVYYASSARGRFTISRPSSKNTVDLQMNSLRAEDTAVYYCARDSGYSDPMWGQGTLVTVSSGGGGSGGGGSGGGGSGGGGSDVVMTQSPSSVSASVGDRVTITCQASQNIRTYLSWYQQKPGKAPKLLIYAAANLASGVPSRFSGSGSGTDFTLTISDLEPGDAATYYCQSTYLGTDYVGGAFGGGTKVEIK
light: DVVMTQSPSTLSASVGDRVTINCQASESISSWLAWYQQKPGKAPKLLIYEASKLASGVPSRFSGSGSGTEFTLTISSLQPDDFATYYCQGYFYFISRTYVNSFGGGTKVEIKRTVAAPSVFIFPPSDEQLKSGTASVVCLLNNFYPREAKVQWKVDNALQSGNSQESVTEQDSKDSTYSLSSTLTLSKADYEKHKVYACEVTHQGLSSPVTKSFNRGEC
B2: SI-49R21 (Fc fusion)
heavy: FLNSLFNQEVQIPLTESYCGPCPKNWICYKNNCYQFFDESKNWYESQASCMSQNASLLKVYSKEDQDLLKLVKSYHWMGLVHIPTNGSWQWEDGSILSPNLLTIIEMQKGDCALYASSFKGYIENCSTPNTYICMQRTVASTKGPSVFPLAPSSKSTSGGTAALGCLVKDYFPEPVTVSWNSGALTSGVHTFPAVLQSSGLYSLSSVVTVPSSSLGTQTYICNVNHKPSNTKVDKRV[human IgG1 Fc with L234A L235A N297A K322A (EU numbers) cut from this listing]
light: FLNSLFNQEVQIPLTESYCGPCPKNWICYKNNCYQFFDESKNWYESQASCMSQNASLLKVYSKEDQDLLKLVKSYHWMGLVHIPTNGSWQWEDGSILSPNLLTIIEMQKGDCALYASSFKGYIENCSTPNTYICMQRTVRTVAAPSVFIFPPSDEQLKSGTASVVCLLNNFYPREAKVQWKVDNALQSGNSQESVTEQDSKDSTYSLSSTLTLSKADYEKHKVYACEVTHQGLSSPVTKSFNRGEC
notes: Monospecific GNC (antibody-like protein) with NKG2D receptor in place of the antibody VH/VL domains (D2); The NKG2D monomers on the two chains dimerize upon chain association
B3: SI-49R22 (Fc fusion)
heavy 1: FLNSLFNQEVQIPLTESYCGPCPKNWICYKNNCYQFFDESKNWYESQASCMSQNASLLKVYSKEDQDLLKLVKSYHWMGLVHIPTNGSWQWEDGSILSPNLLTIIEMQKGDCALYASSFKGYIENCSTPNTYICMQRTVASTKGPSVFPLAPSSKSTSGGTAALGCLVKDYFPEPVTVSWNSGALTSGVHTFPAVLQSSGLYSLSSVVTVPSSSLGTQTYICNVNHKPSNTKVDKRV[human IgG1 Fc with L234A L235A N297A K322A S354C T366W (EU numbers) cut from this listing]
light: B2 light
heavy 2: FLNSLFNQEVQIPLTESYCGPCPKNWICYKNNCYQFFDESKNWYESQASCMSQNASLLKVYSKEDQDLLKLVKSYHWMGLVHIPTNGSWQWEDGSILSPNLLTIIEMQKGDCALYASSFKGYIENCSTPNTYICMQRTVASTKGPSVFPLAPSSKSTSGGTAALGCLVKDYFPEPVTVSWNSGALTSGVHTFPAVLQSSGLYSLSSVVTVPSSSLGTQTYICNVNHKPSNTKVDKRVEPKSCDKTHTCPPCPAPEAAGGPSVFLFPPKPKDTLMISRTPEVTCVVVDVSHEDPEVKFNWYVDGVEVHNAKTKPREEQYASTYRVVSVLTVLHQDWLNGKEYKCAVSNKALPAPIEKTISKAKGQPREPQVCTLPPSRDELTKNQVSLSCAVKGFYPSDIAVEWESNGQPENNYKTTPPVLDSDGSFFLVSKLTVDKSRWQQGNVFSCSVMHEALHNHYTQKSLSLSPGK
notes: Same format as SI-49R21 (NKG2D at D2), but with a heterodimerizing knobs-into-holes Fc
B4: SI-49R24 (Fc fusion)
chain 1: FLNSLFNQEVQIPLTESYCGPCPKNWICYKNNCYQFFDESKNWYESQASCMSQNASLLKVYSKEDQDLLKLVKSYHWMGLVHIPTNGSWQWEDGSILSPNLLTIIEMQKGDCALYASSFKGYIENCSTPNTYICMQRTVAS[human IgG1 Fc with C220S L234A L235A N297A K322A S354C T366W (EU numbers) cut from this listing]
chain 2: FLNSLFNQEVQIPLTESYCGPCPKNWICYKNNCYQFFDESKNWYESQASCMSQNASLLKVYSKEDQDLLKLVKSYHWMGLVHIPTNGSWQWEDGSILSPNLLTIIEMQKGDCALYASSFKGYIENCSTPNTYICMQRTVASEPKSSDKTHTCPPCPAPEAAGGPSVFLFPPKPKDTLMISRTPEVTCVVVDVSHEDPEVKFNWYVDGVEVHNAKTKPREEQYASTYRVVSVLTVLHQDWLNGKEYKCAVSNKALPAPIEKTISKAKGQPREPQVCTLPPSRDELTKNQVSLSCAVKGFYPSDIAVEWESNGQPENNYKTTPPVLDSDGSFFLVSKLTVDKSRWQQGNVFSCSVMHEALHNHYTQKSLSLSPGK
notes: Same structure as SI-49R23 (NKG2D-Fc, no CH1/CL), but with knobs-into-holes mutations in the Fc; Both chains are NKG2D-Fc chains
B5: SI-49E15 (other)
heavy: EIVMTQSPSTLSASVGDRVIITCQASESISSWLAWYQQKPGKAPKLLIYEASKLASGVPSRFSGSGSGAEFTLTISSLQPDDFATYYCQGYFYFISRTYVNSFGCGTKLTVLGSTGSGSKPGSGEGSTKGEVQLVESGGGLVQPGGSLRLSCTASGFTISTNAMSWVRQAPGKCLEWVGVITGRDITYYASWAKGRFTISRDTSKNTVYLQMNSLRAEDTAVYYCARDGGSSAITSNNIWGQGTLVTVSTGGGGSGGGGSFLNSLFNQEVQIPLTESYCGPCPKNWICYKNNCYQFFDESKNWYESQASCMSQNASLLKVYSKEDQDLLKLVKSYHWMGLVHIPTNGSWQWEDGSILSPNLLTIIEMQKGDCALYASSFKGYIENCSTPNTYICMQRTVASTKGPSVFPLAPSSKSTSGGTAALGCLVKDYFPEPVTVSWNSGALTSGVHTFPAVLQSSGLYSLSSVVTVPSSSLGTQTYICNVNHKPSNTKVDKRV[human IgG1 Fc with L234A L235A N297A K322A (EU numbers) cut from this listing]GGGGSGGGGSEVQLLESGGGLVQPGGSLRLSCAASGFSFSSGYDMCWVRQAPGKCLEWIACIAAGSAGITYDANWAKGRFTISRDNSKNTLYLQMNSLRAEDTAVYYCARSAFSFDYAMDLWGQGTLVTVSSGGGGSGGGGSGGGGSGGGGSDIQMTQSPSTLSASVGDRVTITCQASQSISSHLNWYQQKPGKAPKLLIYKASTLASGVPSRFSGSGSGTEFTLTISSLQPDDFATYYCQQGYSWGNVDNVFGCGTKVEIKGGGGSGGGGSGRSLVESGGGLVQPGGSLRLSCTASGFTISSYHMQWVRQAPGKCLEYIGTISSGGNVYYASSARGRFTISRPSSKNTVDLQMNSLRAEDTAVYYCARDSGYSDPMWGQGTLVTVSSGGGGSGGGGSGGGGSGGGGSDVVMTQSPSSVSASVGDRVTITCQASQNIRTYLSWYQQKPGKAPKLLIYAAANLASGVPSRFSGSGSGTDFTLTISDLEPGDAATYYCQSTYLGTDYVGGAFGCGTKVEIK
light: B2 light
notes: Tetra-specific GNC: anti-CD3 scFv at D1, NKG2D at D2, anti-PD-L1 scFv at D3, anti-4-1BB scFv at D4
B6: SI-49P6 (other)
heavy: B5 heavy
light: ENVLTQSPASLSASPGERVTITCSASSSVSYMHWYQQKPGQAPKLWIYDTSKLASGVPSRFSGSGSGNDHTLTISSMEPEDFATYYCFQGSVYPFTFGQGTKLEIKGSTGSGSKPGSGEGSTKGQVTLKESGPGLVQPGQTLRLTCAFSGFSLSTSGMGVGWIRQPPGKGLEWLAHIWWDDDKRYNPALKSRLTISKDTSKNQVYLQMNSLDAEDTAVYYCARMELWSYYFDYWGQGTLVTVSSGGGGSGGGGSGGGGSFLNSLFNQEVQIPLTESYCGPCPKNWICYKNNCYQFFDESKNWYESQASCMSQNASLLKVYSKEDQDLLKLVKSYHWMGLVHIPTNGSWQWEDGSILSPNLLTIIEMQKGDCALYASSFKGYIENCSTPNTYICMQRTVRTVAAPSVFIFPPSDEQLKSGTASVVCLLNNFYPREAKVQWKVDNALQSGNSQESVTEQDSKDSTYSLSSTLTLSKADYEKHKVYACEVTHQGLSSPVTKSFNRGEC
notes: Penta-specific GNC: same domains as SI-49E15 plus anti-CD19 (SI-BU12) scFv at D6

Each binder was assayed against MICA on MDA-MB-231 cells (UniProt Q29983 24-383, limits assumed) (assay: cell-based or functional assay).
For B1, the “TDCC EC50 (pM), MDA-MB-231 target cells, E:T 5” value was 0.054 pM.

These binders were tested against T1, human MICA (Acro, MIA-H5221) (human, UniProt Q29983 24-307, limits assumed) (assay: BLI (Octet); GNC protein loaded on AHC sensors at 5 ug/ml; human MICA as analyte, 1:2 serial dilutions from 100 nM; global fit, 1:1 model).
T1 construct: Bought reagent used as analyte in solution; also called NKG2D ligand MICA
Procedure: To validate functionality of the NKG2D receptor in the D2 position, Octet binding was performed. GNC protein was loaded onto AHC sensors at 5 ug/ml, and subsequently bound to 1:2 serial dilutions (top concentration 100 nM) of human MICA (Acro, MIA-H5221).
B2 gave a Kd of 8.95 nM.
B3 was tested, and the Kd was 1.93 nM.
For B4, the Kd was 17.7 nM.
With B5 the Kd was 3.34 nM.
Binder B6 has a Kd of 8.7 nM.
